Source: the supplement of paper PMC11417369
The list shows a part of the results.

What follows are sequences tested on PfSIP2 AP2 domain 1 (GST-tagged) (assay: gcPBM binding intensity (ln(normalized median fluorescence intensity)); higher = stronger DNA binding).
Procedure, shortened: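 Binding intensity is defined as the maximum Masliner-normalised natural-log median intensity across replicate spots for either probe orientation. It was measured on an Agilent 4 × 180k array of primer-extended double-stranded 36-bp intergenic genomic probes and negative controls, to which GST-tagged P. falciparum DNA-binding domains made in E. coli were applied for 1 h in 1× PBS with 1% milk, 0.2 mg/ml BSA, 0.5% salmon testes DNA and 0.03% Triton X-100. Detection was by Alexa488 anti-GST antibody and scanning at 488 nm.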

Row | Sequence | gcPBM binding intensity (ln)
1 | AATGGAGTTTATAAGTATAAACGAGGGATACCTAAA [XGTACX_negctrl_site483] | 6.76
2 | AATATAAATAATAGTAGTACATATATATCTCAGAAA [XGTACX_site4055] | 7.01
3 | TAAATAAATTTATACACACACACACCCATATATATA [CACACA_site849] | 7.48
4 | AAAAAATCAAAACACACACACACACTAGAAAAAAAA [CACACA_site4909] | 7
5 | TTATGTTGTAAATGCACACATACATATACGCAGTTT [CACACA_site3015] | 7.21
6 | TATATTATATTTTTATGTACATATATGTTTTTTTTT [XGTACX_site8239] | 6.97
7 | AATAAAAATATATCCACACACATATATATATCTGTA [CACACA_site4481] | 6.76
8 | ATTTTATCAAGAGGAAGTACATTACCCCATGAAAAA [XGTACX_site8295] | 7
9 | TATATATATATATGATGTACATGAAAATTTCCAAAA [XGTACX_site5472] | 9.4
10 | TATATTTTTTAATTCACACAAAAATGAAAAATATTT [CACACA_site6001] | 6.9
11 | ATATCTGAAGTGTAAAGTACATATATATATTCATAT [XGTACX_site4612] | 6.94
12 | CAATTTTACTCATAAACACACATATAGATGTTATTA [CACACA_site7474] | 6.92
13 | TATATATATTATAATACATGCGGTGATGAAAGTTAT [TGCATGCA_site924] | 7.49
14 | TATAAATATAGACACACACACACCAAAGCGTAGCGC [CACACA_site6179] | 6.65
15 | TTTTTTTATATAGACACAAAAGAAAATTACATATAC [CACACA_negctrl_site235] | 7.3
16 | TATAATATATATATATTTATATATATCTTCCTAATC [GTGCAC_negctrl_site682] | 6.94
17 | AAAAAAAAAAAAAAAACACACAAGGATCATATATAT [CACACA_site3812] | 7.56
18 | AATATTTATTTTATATGTACATAATTTATTTTTAAT [XGTACX_site776] | 6.91
19 | GATTTGTCTTACAGTGGTACACTTATATATATGTGA [XGTACX_site2899] | 7.13

Row | Sequence | gcPBM binding intensity (ln)
20 | TATGAAGTACACAATACACACTAATTATATATAAAT [CACACA_site5444] | 6.91
21 | TTTTTAAAAAAACATACACACAAAAAAAAAAAAAAA [CACACA_site3935] | 6.89
22 | AAATAAAAATAAAATAAAATAAAATTAAATGGGAAT [GTGCAC_negctrl_site349] | 6.87
23 | GTTTTATATTATATATGTACATATCCATGAGATATA [XGTACX_site3328] | 7.23
24 | TTTAACTTTTATATAACACACATATTGTAATTATGT [CACACA_site6486] | 7.05
25 | TGTAAACATAAGATATGTACTTATATCATATTATAA [XGTACX_site6883] | 7.01
26 | ATGACAATTCAAAATTGTACATAAAAAAAAAAAAAA [XGTACX_site7560] | 7.11
27 | AAAAAACATTTTCGAGTGCATGTTTTGCTTTATTTC | 7.56
28 | AATAATTTGGTCTTATCAAAAATTAAAAATAAATAA [XGTACX_negctrl_site430] | 6.92
29 | TTAAATGTTAAAAGGGTGCTATTATATAAATGAAAA [GTGCAC_site9882] | 9.06
30 | TTCATATGTTTTAACACACACGCATATATTATATAT [CACACA_site2007] | 7.16
31 | AAAAAAATTTGGCATACACACACACCCCCACCCACA [CACACA_site8094] | 8.37
32 | ACCATATGTACATTTTTTTTTTTTTTTTTTTTTTTT [CACACA_negctrl_site1188] | 8.51
33 | ATATATATATAATGTAGTACTATTTAATAATAAGCC [XGTACX_site1263] | 8.88
34 | AAAAAAAAAAAAAAAGCACACACCAATGAGCAGCTT [CACACA_site1845] | 7.62
35 | CACACCCACAGACACACACACACATATATAATATAT [CACACA_site594] | 7.27
36 | TATAATCATATACACGCATGTATAAAATTTAATACT [TGCATGCA_site700] | 7.06
37 | ATATGTTACAAAGATTGTACTTATTAAGGAGCGACT [XGTACX_site5094] | 7.16
38 | TAATATATGTATTATGCATGTGAATAAGCACTTGAT [TGCATGCA_site848] | 7.64

Row | Sequence | gcPBM binding intensity (ln)
39 | ACATTCAAGCGTAATTGTACATACATATATATATAT [XGTACX_site8876] | 9.1
40 | ATGTATATAAATAGTAGTACATTATTTCACACTGTA [XGTACX_site2061] | 7.11
41 | TATTGTATCCTTAATGCATGCACCAAATAAAAAAAG [TGCATGCA_site541] | 11.1
42 | ATATATCATCATGTATGTACACACATACATATATTA [XGTACX_site2814] | 7.18
43 | TATGCTTTTACAATGTGTACTTATATTTTTCACAGG [XGTACX_site6201] | 7.37
44 | TAATTTTCAATAATTTGTACATAATTTTTATAAATT [XGTACX_site8133] | 6.84
45 | TATATAAATTAACCAGTGCATTATTTGGAAATTATT | 8.33
46 | AACCATAAAAAGTGTACACATATAAAAAATATGGAA [CACACA_site4199] | 7.39
47 | TAAAAAAATTTTACAAGTACAAAAAAATGTAATAAA [XGTACX_site4829] | 7.05
48 | ATATATATAGATCGAAGTACAGATAGAATGAAAATA [XGTACX_site2695] | 7.1
49 | ACAAGAGAAAAAAATACACACAAGATAAAAATGTAT [CACACA_site607] | 7
50 | TAATAATAATTAAATTGTACATATAATATAATATAA [XGTACX_site8554] | 7.15
51 | ATATTATCATATTCGAGTACACGAAGTATTATTGCA [XGTACX_site6765] | 7.07
52 | AATAAAGTAATAACTACACACATTTATAAAAAAGTA [CACACA_site3753] | 6.89
53 | AACATATTGGATTTAGTGCACATATATATCATAATA | 10.3
54 | AAAAATTACCCTTGTGTACACATATATTATCTGTAT [CACACA_site4513] | 7.19
55 | TATAAGCTTTCAATGTGTACATATTATTTTATTATT [XGTACX_site3988] | 7.14
56 | TCTTATAAACATGTATATATTAAAAAAAAAAAAAAA [TGCATGCA_negctrl_site86] | 7.09
57 | TAAAAATTACTATATGAACACACATGATTAGATATA [CACACA_site9012] | 6.9
